In doi:10.1101/869909 (bioRxiv, 2019):

Target: the molecule itself
Experiment: SEC-MALS

B1: HSP27(gT184), HSP27 with O-GlcNAc at Thr184 (semisynthetic) (natural protein)
chain: not shown
modifications: O-GlcNAc at Thr184
- stoichiometry N: ~47 monomers

B2: HSP27, unmodified (semisynthetic) (natural protein)
chain: not shown
- stoichiometry N: ~28 monomers
